From PubChem BioAssay (NCI) come the findings set out here.

Where “and” joins values, the source holds several entries; their conditions need not be identical. Equal values may be shown once.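 1) Cells in 96-well plates. 2) Compound, 48 h, 5 concentrations. 3) Linear interpolation between surrounding doses. 4) Unreached endpoint = highest concentration. Here, GI50 denotes the concentration required for 50% inhibition of growth. TGI marks complete inhibition of growth.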 Bounds are passed on as bounds.

The experiment deals with NCI-H322M lung. The experiment is described as follows: growth of human tumour cells (NCI), 48 h.
`Cc1ccc2c(c1)CC1(Cc3ccccc3C1=O)C2=O` (centres undefined) showed a TGI greater than 100 µM.

In the case of `c1ccc(Sc2ccc(Cc3nc4cc5ccccc5cc4[nH]3)cc2)cc1`, the GI50 is 2.1 µM and the TGI came out at 9.85 µM.

With `Cc1ccc(NC(=O)c2cccc(C(C)(C)C#N)c2)cc1Nc1ccc2ncn(C)c(=O)c2c1`, the GI50 is 3.12 µM and the TGI is greater than 100 µM.

With `Oc1c(N2CCOCC2)cc(-c2cc(N3CCOCC3)c(O)c3ccccc23)c2ccccc12`, the TGI came out at 3.44 µM.

For the molecule `CC(C)c1c(O)c(O)c2c(c1O)C(=O)C(O)=C1C(C)(C)CCC[C@@]12C`, the TGI was 11.1 µM.

Molecule `CC1CCCCNC1=S` (centres undefined) came in with a TGI greater than 10 µM.

In the case of `CSc1nnc(SC)nn1`, the TGI was greater than 100 µM.

The molecule `CCOC(=O)c1ccc(NCc2ccc3oc(=O)c(-c4ccccc4)nc3c2)cc1` returned a TGI greater than 100 µM.

The molecule `COC(=O)C12CC3CC(CC(C(=O)O)(C3)C1)C2` showed a TGI greater than 100 µM.

`CCOC(=O)C(=O)Nc1ccccc1CC` returned a TGI greater than 100 µM.

As to `Cc1cc(N(CCC#N)CCC#N)ccc1/C=C(\NC(=O)/C=C/c1ccccc1)C(N)=O`, the TGI is greater than 100 µM.

For `CC1=CC(=O)C=CC1=O`, the GI50 is 24.2 µM and the TGI was 132 µM.

For the molecule `CCNCCNc1cc(-c2ccc(C(F)(F)F)cc2)c(C#N)c2nc3ccccc3n12`, the GI50 was 1.34 µM and the TGI was found to be 2.75 µM.

As to `Cn1c(O)c(C(=O)NC2CCCCC2)c(=O)n(C)c1=S`, the TGI was found to be 31.5 µM.

Molecule `CCOC(C)O[C@H]1C(=O)OCC1(C)C` (some centres undefined) gave a TGI greater than 100 µM.

On to `CC(=O)[C@@H](C)C(=O)N1C(=O)OC[C@@]12[C@@H]1CC[C@@H](C1)C2(C)C`, for which the TGI is greater than 100 µM.

Regarding `O=C1c2cccnc2-c2nc(-c3ccc(Cl)cc3)cc3c2c1nc1ccccc13`, the GI50 is 28.1 µM and the TGI came out at 65.1 µM.

For `COc1cc(Cc2nccc3cc(OC)c(OC)cc23)c(C(C)=O)cc1OC`, the TGI was 192 µM and > 750 µM.

Take `COc1cc(OC)c(C(=O)/C=C/c2cccc(C(F)(F)F)c2)c(OC)c1`: the GI50 was 1.49 µM and the TGI is 5.18 µM.

Regarding `C=C(C)[C@@H]1CC[C@]2(CO)CC[C@]3(C)[C@H](CC[C@@H]4[C@@]5(C)C=C(C#N)C(=O)C(C)(C)[C@@H]5CC[C@]43C)[C@@H]12`, the GI50 was 1.35 µM and the TGI was 4.06 µM.

Regarding `CCCC(CCC)NCC(O)c1cc(-c2ccc(C(F)(F)F)cc2)nc(C(F)(F)F)c1` (centres undefined), the GI50 is 1.84 µM and the TGI amounted to 3.43 µM.

For `O=C(CCc1nc(=S)[nH][nH]1)Nc1ccccc1Cl`, the TGI is greater than 100 µM.

As for `C/C(=N\Nc1ccc(Cl)cn1)c1ccc2ccccc2n1`, the GI50 is 3.43 µM and the TGI is greater than 100 µM.

On to `N#Cc1[nH]c(=O)n(-c2ccccc2)c1N`, for which the TGI is greater than 10 µM.

The molecule `O=[N+]([O-])c1ccc(S(=O)(=O)n2c3ccc(Br)cc3c3nc4ccccc4nc32)cc1` showed a TGI greater than 100 µM.

In turn, `CN1CCc2nc(N)nc(-c3nc(N)nc4c3CN(C)CC4)c2C1` yielded a TGI greater than 100 µM.

Molecule `C[N+]1(C)CCc2cc(O)c(O)cc2C1Cc1ccc(O)c(O)c1` (centres undefined) came in with a TGI greater than 100 µM.

The molecule `COc1ccc(S(=O)(=O)c2ccccc2[N+](=O)[O-])cc1` gave a TGI greater than 100 µM.

The molecule `Cc1ccc(S(=O)(=O)N/N=C2/CCCOC2)cc1` came in with a TGI greater than 100 µM.

Turning to `CCCC1=C(CC)C(C(=O)Nc2c(C)cccc2C)=NC(S)N1` (centres undefined), the TGI was greater than 100 µM.

For the molecule `COc1ccc(CN2CC(C)(C)C2=O)c(OC)c1`, the TGI was greater than 100 µM.

In turn, `NNC(=S)N/N=C(/C(=O)Nc1ccc(Cl)c(Cl)c1)C(C1OC(=O)c2ccccc21)[N+](=O)[O-]` (centres undefined) returned a TGI greater than 100 µM.

Regarding `O=C(N/N=C\C=C\c1ccc([N+](=O)[O-])o1)C(=O)N/N=C\C=C\c1ccc([N+](=O)[O-])o1`, the TGI was greater than 100 µM.

As for `CC12OC(C(=O)C13CC3)C1C(=O)c3ccc4c(ccc5ccccc54)c3C(=O)C12` (centres undefined), the GI50 is 23.4 µM and the TGI was greater than 100 µM.

On to `O=C1NC(=S)NC(=O)C1C(c1ccc(O)cc1)C1C(=O)NC(=S)NC1=O`, for which the TGI was greater than 100 µM.

The molecule `CN(Cc1ccccc1)C(=O)c1ccccc1C(=O)O` had a TGI greater than 100 µM.

`CCN(CC)C1CC(O[C@H]2C[C@](O)(C(=O)CO)Cc3c(O)c4c(c(O)c32)C(=O)c2c(OC)cccc2C4=O)OC(C)C1O` (some centres undefined): the TGI is 0.258 µM.

Regarding `COc1ccc(C2=C(Cl)c3cc(OC)c(OC)cc3C2Cl)cc1` (centres undefined), the TGI was determined as 33.3 µM.

As for `Cc1cc2ncnn2cc1Nc1ncc2c(n1)n(C1CCOCC1)c(=O)n2C`, the GI50 was 8.81 µM and the TGI was greater than 100 µM.

For `O=C(Nc1cc(Cl)c(Cl)cc1Cl)C(=O)C1C(=O)NC(=S)NC1=O`, the TGI is greater than 100 µM.

`CCCN(CCC)C(=O)c1c([N+](=O)[O-])cc(C(F)(F)F)cc1[N+](=O)[O-]`: the TGI was greater than 100 µM.

In the case of `O=S(=O)(c1ccc(NC(=S)NC23CC4CC(CC(C4)C2)C3)cc1)N1CCCCC1`, the GI50 is 3.31 µM and the TGI was greater than 100 µM.

`N#CCCC(CCC#N)(CCC#N)NO` gave a TGI greater than 100 µM.

The molecule `COc1c(C)cc2c(c1O)C1C3[C@H]4SC[C@@]5(NCCC6=C5NC5C=CC=CC65)C(=O)OCC(c5c6c(c(C)c(OC(C)=O)c54)OCO6)N3[C@@H](O)C(C2)N1C` (some centres undefined) showed a TGI of 0.103 µM.

`CN(C(=O)Cc1cccc(N=C=S)c1)[C@H]1CCCC[C@@H]1N1CCCC1` showed a TGI of 32.1 µM.

`CCCCCCCCCCCCCCCC(=O)OCC(C[As](=O)(O)O)OC(=O)CCCCCCCCCCCCCCC` (centres undefined) registered a TGI greater than 100 µM.

For `CCc1nc(N)nc(N)c1-c1ccc(NC)c([N+](=O)[O-])c1`, the TGI is greater than 100 µM.

`CCc1cc(Cc2cc(CC)c(NC(=O)C(=O)CC(=O)c3sc(-c4cccnc4)nc3C)c(CC)c2)cc(CC)c1NC(=O)C(=O)CC(=O)c1sc(-c2cccnc2)nc1C` showed a TGI greater than 100 µM.

On to `C1=Cc2cc3c(c4nccc(c24)N1)OCO3`, for which the TGI is 26.4 µM.

In turn, `COc1cc(OC)c2c(C)cc(=O)oc2c1` yielded a TGI greater than 100 µM.

For `O=c1c2ccccc2nc(Cc2nc(-c3ccc(Cl)cc3)cs2)n1-c1ccc(Cl)cc1`, the TGI is greater than 100 µM.

Turning to `CCCCNC1CCCCC[C@H]1O` (some centres undefined), the TGI is greater than 100 µM.

Consider `COc1cc2ncnc(-n3ncc4cc(NC(=O)Nc5ccccc5)ccc43)c2cc1OC`, for which the GI50 was 0.741 µM and the TGI amounted to 11.4 µM.

Molecule `O=C(/C=C/c1ccc2ccccc2c1)NCc1ccc(C(=O)NCCc2ccccc2)cc1` came in with a TGI greater than 100 µM.

With `CC(C)=C[C@H]1CCC2(OCCO2)[C@]1(C)CO`, the TGI is greater than 100 µM.

`Cn1cc(C2(C)CC(C)(C)c3c2n(C)c2ccccc32)c2ccccc21` (centres undefined) showed a TGI greater than 100 µM.

On to `COC(=O)c1cc2c(cc1CC(Cc1ccc3c(c1)CCCC3)C(=O)OC)CCCC2` (centres undefined), for which the TGI is greater than 100 µM.

With `COC(=O)c1cc2c(cc1Cl)Sc1nnc(Nc3ccc(C)cc3)n1S2(=O)=O`, the TGI turned out to be 22.2 µM.

`Nc1ccccc1/C(O)=C1/CCOC1=O` came in with a TGI greater than 100 µM.

Consider `Cc1[nH]c(=O)nc2[nH][nH]c(=O)c12`, for which the TGI is greater than 100 µM.

For `CC1(C)/C(=C/N=O)N(O)C(C)(C)N1O`, the TGI was greater than 100 µM.

`O=C(/C=C/c1ccc(Cl)c(Cl)c1)c1ccc2ccccc2c1` showed a TGI greater than 100 µM.

For the molecule `CCOC(=O)CC(C)C1(C(=O)OCC)CCCCC1=O` (centres undefined), the TGI was greater than 100 µM.

Take `CO/C=C(/C(=O)OC)c1ccccc1COc1cccc(C(F)(F)F)c1`: the TGI is 65.7 µM.

Consider `Cc1sc2nc(-c3cccc([N+](=O)[O-])c3)c(/C=N/N=C(N)N)n2c1C`, for which the TGI stood at 3 µM.

Take `COCC[C@H]1CCC/C=C/[C@@H]2C[C@H](O)C[C@H]2[C@H](O)/C=C/C(=O)O1`: the GI50 was 0.0913 µM and the TGI was greater than 100 µM.

Take `CC1=C(/C=C/Cl)CC(Cl)C(C)(Cl)C1` (centres undefined): the TGI was greater than 100 µM.

The molecule `CCCCCCCCCCCC(=O)OCC(C[As](=O)(O)O)OC(=O)CCCCCCCCCCC` (centres undefined) came in with a TGI of 33.8 µM.

Consider `COc1ccc(C(=O)c2cc(OC)c(OC)c(OC)c2)cc1/C=C/C(=O)c1ccc(F)cc1`, for which the GI50 is 15.4 µM and the TGI was found to be 40 µM.

Regarding `O=c1cc(NCC(O)CN2CCCC2)n(Cc2ccccc2)c(=O)n1Cc1ccccc1` (centres undefined), the GI50 is 41.2 µM and the TGI was greater than 100 µM.

In turn, `COc1cc(/C=C/c2ccc(OC)c(O)c2)cc(OC)c1` displayed a TGI of 50.4 µM.

`C=C1C(=O)O[C@H]2[C@H]1CC/C(COC(=O)NCCCCNC(=O)OC/C1=C/CC[C@@]3(C)O[C@H]3[C@H]3OC(=O)C(=C)[C@@H]3CC1)=C\CC[C@@]1(C)O[C@@H]21`: the GI50 was 12.6 µM and the TGI amounted to 25.8 µM.

As for `OCC1OC(n2cnc3c2NC=NC[C@H]3O)C(Cl)C1O` (some centres undefined), the TGI is greater than 100 µM.

Turning to `CCOC(=O)c1ccc(N[C@@H]2c3cc4c(cc3C(c3cc(OC)c(O)c(OC)c3)[C@H]3C(=O)OCC32)OCO4)cc1O` (some centres undefined), the TGI was greater than 91 µM.

Turning to `Nc1nc(Nc2cccnc2)sc1C(=O)c1ccccc1F`, the GI50 is 2.74 µM and the TGI is 17.8 µM.

On to `CCOC(=O)c1cn2c(n1)sc1cc(Cl)ccc12`, for which the TGI was greater than 100 µM.

Consider `COC(=O)Nc1nc2ccc(S(=O)(=O)SC)cc2[nH]1`, for which the TGI is greater than 100 µM.

The molecule `Cc1cc2nc(C=C(C(F)(F)F)C(F)(F)F)oc2cc1C` returned a TGI of 7.24 µM.

Regarding `CCOC(=O)C1CCN(S(=O)(=O)/N=C2/NC(=O)NC2=C(Cl)Cl)CC1`, the GI50 is 2.93 µM and the TGI amounted to 13.5 µM.

`N#C/C(=C/NC(N)=S)C(N)=O` came in with a TGI greater than 100 µM.

With `Cc1cc(C)c(NC(=O)c2sc3nc4c(cc3c2N)C(=O)CCC4)c(C)c1`, the GI50 was 8.98 µM and the TGI was greater than 100 µM.

The molecule `CCOC(=O)CCC(=O)C1c2cccc(O)c2C(=O)c2c(O)cc(C)cc21` (centres undefined) returned a TGI of 1.49 µM.

Turning to `O=C1NC2O[C@H](CNC(=O)c3cc(Br)c[nH]3)CC2(O)N1` (mixture of isomers), the TGI is greater than 100 µM.

Regarding `COc1ccc(-c2nc3ccccn3c2/C=C/C(=O)c2cc(OC)c(OC)c(OC)c2)cc1OC`, the GI50 was 2.08 µM and the TGI stood at 18.6 µM.

In turn, `N#Cc1c(-c2ccccc2)[nH]c2ccc(Cl)cc2c1=O` showed a TGI greater than 100 µM.

In turn, `COCc1nc2c(OC)c(-c3nc4nc(N5CCN(C)CC5)ccc4[nH]3)cc(OC)c2n1C` yielded a TGI of 55.3 µM.

As for `CCOC(=O)c1cc2c3ccn(Cc4ccccc4)c3c3c(C)[nH]oc3c2n1`, the TGI was greater than 100 µM.

`O=C(Nc1nnc(-c2ccc(Cl)cc2)o1)C(SC(=S)N1CCOCC1)c1ccccc1` (centres undefined) came in with a TGI of 62.3 µM.
